# The other results are listed elsewhere or left out. The data describe in vitro nicking of single-stranded DNA by Rep domains for 1 h at 37 °C with 3 µM enzyme; only the middle of the 90-letter strands is printed. Values are log2 of uncut reads against the no-enzyme pool; strong cutting gives strongly negative numbers. There is no active / inactive call. Reads are scaled to the total; uncut strands gain when others are lost, and binding without cutting may add a little.
# Columns and labels:
# Experiment in all cases: uncleaved DNA left, log2 of reads against the no-enzyme library (log2 ratio); higher = less cleavage (more negative = more Rep cleavage of the k-mer); sequences stand for … in CTCGTCCG…ACCGGAGA
# [1] = tested on: T1, Rep nickase domain of Muscovy duck circovirus
# T1 sequence (protein, residues 1-111, tag omitted): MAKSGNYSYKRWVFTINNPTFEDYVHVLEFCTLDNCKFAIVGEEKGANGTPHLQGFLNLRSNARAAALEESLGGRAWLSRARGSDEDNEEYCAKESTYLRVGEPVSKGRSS
# Experimental: (§1)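 A pool of 90-nt single-stranded DNAs with seven random bases just before the constant AC of the nick site (name = the seven bases) was cut by 3 µM recombinant His6-SUMO-tagged Rep nickase domain (300 nM DNA, 50 mM HEPES pH 8.0, 50 mM NaCl, 1 mM MnCl2, 1 h, 37 °C, three replicates). Uncut DNA was amplified and sequenced.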
# [2] = tested on: T2, Rep nickase domain of banana bunchy top virus
# T2 sequence (protein, residues 1-94, tag omitted): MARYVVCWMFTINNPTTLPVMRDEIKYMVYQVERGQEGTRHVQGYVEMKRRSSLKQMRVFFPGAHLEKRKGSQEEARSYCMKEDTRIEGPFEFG
# Experimental: as §1
# [3] = tested on: T3, Rep nickase domain of cabbage leaf curl virus
# T3 sequence (protein, residues 1-116, tag omitted): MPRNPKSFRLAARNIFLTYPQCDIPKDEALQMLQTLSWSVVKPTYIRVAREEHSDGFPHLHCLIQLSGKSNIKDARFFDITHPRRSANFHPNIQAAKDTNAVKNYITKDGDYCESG
# Experimental: as §1
# [4] = tested on: T4, Rep nickase domain of chickpea chlorotic dwarf virus
# T4 sequence (protein, residues 1-124, tag omitted): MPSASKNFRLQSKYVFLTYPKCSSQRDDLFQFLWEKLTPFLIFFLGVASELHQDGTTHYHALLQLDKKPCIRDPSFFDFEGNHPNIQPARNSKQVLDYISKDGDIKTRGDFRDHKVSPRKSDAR
# Experimental: as §1
# [5] = tested on: T5, Rep nickase domain of faba bean necrotic yellows virus
# T5 sequence (protein, residues 1-98, tag omitted): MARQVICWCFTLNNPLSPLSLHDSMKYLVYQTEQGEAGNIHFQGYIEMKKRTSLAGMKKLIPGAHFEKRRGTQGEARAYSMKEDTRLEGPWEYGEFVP
# Experimental: as §1
# [6] = tested on: T6, Rep nickase domain of maize striate mosaic virus
# T6 sequence (protein, residues 1-117, tag omitted): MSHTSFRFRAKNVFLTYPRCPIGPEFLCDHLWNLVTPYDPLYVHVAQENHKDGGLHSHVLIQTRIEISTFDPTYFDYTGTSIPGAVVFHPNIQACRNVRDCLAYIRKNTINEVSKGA
# Experimental: as §1
# [7] = tested on: T7, Rep nickase domain of porcine circovirus 2
# T7 sequence (protein, residues 2-116, tag omitted): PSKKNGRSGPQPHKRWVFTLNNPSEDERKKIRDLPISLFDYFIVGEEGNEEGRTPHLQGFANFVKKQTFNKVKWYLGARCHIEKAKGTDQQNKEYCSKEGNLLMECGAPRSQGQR
# Experimental: as §1
# [8] = tested on: T8, Rep nickase domain of tomato golden mosaic virus
# T8 sequence (protein, residues 1-124, tag omitted): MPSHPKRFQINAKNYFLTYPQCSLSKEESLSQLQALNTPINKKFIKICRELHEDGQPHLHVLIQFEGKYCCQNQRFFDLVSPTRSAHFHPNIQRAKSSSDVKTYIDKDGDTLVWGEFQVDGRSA
# Experimental: as §1
# [9] = tested on: T9, Rep nickase domain of tomato yellow leaf curl virus
# T9 sequence (protein, residues 1-136, tag omitted): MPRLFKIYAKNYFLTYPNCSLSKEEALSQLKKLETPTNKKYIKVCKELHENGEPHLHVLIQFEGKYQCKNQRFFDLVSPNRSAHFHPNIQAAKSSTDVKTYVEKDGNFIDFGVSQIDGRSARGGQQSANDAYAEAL
# Experimental: as §1
# [10] = tested on: T10, Rep nickase domain of wheat dwarf virus
# T10 sequence (protein, residues 1-137, tag omitted): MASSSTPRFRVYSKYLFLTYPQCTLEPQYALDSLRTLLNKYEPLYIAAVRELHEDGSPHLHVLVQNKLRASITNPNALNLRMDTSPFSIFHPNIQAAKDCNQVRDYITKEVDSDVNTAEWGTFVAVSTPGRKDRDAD
# Experimental: as §1
Sequence,uncleaved DNA left (log2) [1],uncleaved DNA left (log2) [2],uncleaved DNA left (log2) [3],uncleaved DNA left (log2) [4],uncleaved DNA left (log2) [5],uncleaved DNA left (log2) [6],uncleaved DNA left (log2) [7],uncleaved DNA left (log2) [8],uncleaved DNA left (log2) [9],uncleaved DNA left (log2) [10]
CAATTCA,-0.358,0.051,-1.83,-2.58,-0.0821,-1.27,-1.12,-0.31,-0.0147,-0.467
TAAAGCT,0.0544,-0.00557,-3.65,-2.91,0.0171,-1.6,-0.122,-1.09,-0.00972,-2.69
CATACCC,-0.135,-0.0333,-0.0623,-1.43,-0.0388,-0.457,-0.741,-0.0657,-0.0188,-0.0482
GTATTGT,-0.00858,0.0973,0.299,0.705,0.00134,1.07,0.0109,0.0634,0.162,0.0472
TTGCGGT,0.088,0.0849,-0.585,-0.624,0.105,-0.881,0.152,0.0851,0.0345,-0.148
TTTACCC,-0.217,0.102,0.116,-2.03,0.0593,0.00864,-1.04,-0.0483,0.114,0.00949
GAGTAAA,0.19,0.134,0.328,0.738,-0.112,1.21,-2.24,0.149,0.131,0.0913
ACTTACA,-0.183,-0.106,-0.441,-2.43,0.0137,-0.8,-0.16,-0.232,-0.19,0.00795
AGAATAG,0.0115,0.0375,-0.783,-0.487,-0.0291,-1.27,0.161,-0.000614,-0.032,-0.0925
CGGTACA,0.204,0.00614,0.516,0.335,0.067,1.5,0.279,0.0378,0.0888,0.225
GTGATCG,-0.0782,-0.0749,-0.448,-0.379,-0.121,-0.767,0.175,-0.147,-0.00977,-0.108
CTTGCCG,0.0358,-0.0133,-0.783,-0.245,0.0291,-0.795,0.106,-0.121,0.0271,-0.107
GGATCCG,0.0918,0.00451,-0.33,-0.374,-0.0121,-0.718,0.0721,-0.079,-0.0926,-0.0481
TATGCTT,-0.0979,-1.62,-2.24,-2.38,0.0371,-0.659,-1.44,-0.164,-0.00907,-0.172
ATAATTC,-0.0898,-0.215,0.24,-0.22,-0.127,-1.03,0.0522,-0.0648,-0.198,-0.0776
GTGGAAT,-0.024,0.00815,0.708,1.62,-0.0801,2.21,0.201,0.17,0.0855,0.224
TACGACT,0.0079,-0.163,-0.198,-1.79,-0.152,1.22,-0.12,-0.205,-0.114,-0.109
CTTTTGG,-0.0223,0.0307,-0.224,-0.185,0.0852,-0.768,0.0588,0.0147,0.0493,-0.0364
AACAGGA,0.0975,0.0311,0.19,0.501,0.0206,-0.255,0.164,-0.00836,-0.0406,0.0649
GATGCAC,0.0607,0.0395,0.085,0.525,-0.0377,-0.0982,0.0962,0.0491,0.0919,0.0562

Sequence,uncleaved DNA left (log2) [1],uncleaved DNA left (log2) [2],uncleaved DNA left (log2) [3],uncleaved DNA left (log2) [4],uncleaved DNA left (log2) [5],uncleaved DNA left (log2) [6],uncleaved DNA left (log2) [7],uncleaved DNA left (log2) [8],uncleaved DNA left (log2) [9],uncleaved DNA left (log2) [10]
CGCTCGG,-0.0562,0.0499,0.357,0.96,0.0524,1.34,0.0532,0.0505,-0.157,-0.00508
GGTTGGA,0.106,0.184,0.59,0.955,0.0518,1.54,0.325,0.167,0.289,0.234
AAGCCTC,0.0402,0.105,0.323,-0.21,0.139,0.221,-0.171,0.128,0.107,0.105
CGGGCTT,0.0569,0.0175,0.755,1.4,0.103,2.04,0.121,0.026,-0.000387,0.165
GGATTAG,0.0495,-0.0588,-0.19,-0.0436,0.0502,-0.69,0.0767,0.0185,0.0357,-0.0147
GCGACTG,-0.0345,0.0486,-0.0356,0.54,-0.0304,1.79,0.0755,0.0284,-0.14,0.0329
TGCGTGA,0.0822,-0.0929,-0.235,-0.369,0.00506,-0.775,-0.0621,0.019,-0.00834,-0.0844
GCGGGTG,0.0564,0.0416,0.075,0.596,-0.0611,1.41,0.125,0.0516,-0.0315,0.0181
CGACACG,0.175,0.097,-0.173,-0.105,0.0539,-0.58,0.116,-0.000739,0.0626,0.0597
GATCATT,0.0349,0.0805,0.384,0.405,-0.393,1.73,-0.724,-0.297,0.0288,0.232
TCAAGTT,0.0573,0.0317,-0.767,-2.51,0.0312,-0.275,0.0129,-0.0392,0.0249,-0.204
CTAAACA,-0.174,0.0746,-0.0764,-2.26,-0.0821,-0.66,-0.114,0.00555,0.124,0.0842
CTCGAAG,0.0472,0.0162,-0.728,-0.404,0.0359,-0.962,0.305,0.109,0.0771,-0.0336
AACCCCA,0.0261,0.0789,0.531,-0.589,0.0335,0.752,-0.223,0.0407,-0.0401,0.143
TAGTGCG,0.000641,-0.123,-0.213,0.987,-0.118,0.593,0.0656,-0.148,-0.152,-0.161
TTGCGTA,0.14,0.162,-0.646,0.403,0.164,-0.625,0.168,0.0375,0.161,0.0129
CACGTGG,-0.0843,0.0167,-0.00324,0.206,-0.0823,-0.313,0.0516,-0.02,-0.0402,-0.0144
AGTGGCT,0.143,0.127,0.0365,0.611,0.0973,1.41,-0.145,0.277,0.0693,0.179
TAGGAAC,-0.0323,0.0259,0.158,0.896,-0.0718,0.931,0.0637,0.0918,-0.12,-0.0348
CAGAGTT,0.0753,-1.06,-0.24,-1.97,-0.443,0.304,-2.86,0.143,-0.0725,-0.166

Sequence,uncleaved DNA left (log2) [1],uncleaved DNA left (log2) [2],uncleaved DNA left (log2) [3],uncleaved DNA left (log2) [4],uncleaved DNA left (log2) [5],uncleaved DNA left (log2) [6],uncleaved DNA left (log2) [7],uncleaved DNA left (log2) [8],uncleaved DNA left (log2) [9],uncleaved DNA left (log2) [10]
CCGTAGC,0.117,-0.0318,-0.2,-0.421,-0.0561,-0.815,0.0525,0.0114,-0.0394,-0.0855
ACGCGTC,0.0289,-0.0387,-0.85,-0.681,-0.0405,-1.14,-0.0648,-0.193,-0.0107,-0.19
TCAAAGT,0.0175,-0.0173,0.0449,-0.594,-0.00342,-1.05,0.0755,-0.0383,0.00266,-0.105
TCAACAC,-0.0282,0.00514,-0.0279,-1.01,0.032,-0.691,-0.0202,0.0123,-0.0585,-0.0194
AATTCAG,0.00452,0.0384,-0.793,-0.552,0.149,-1.24,0.137,0.0785,0.0426,-0.0471
CCCGGGT,0.0651,-0.0599,0.223,0.686,-0.102,1.28,0.0957,0.0371,-0.0887,-0.00734
ACCGAAC,-0.134,-0.0372,-0.0918,-0.207,-0.159,-0.515,0.0615,0.0802,-0.0239,0.0153
TGGTATC,-0.0126,0.0479,0.461,1.36,-0.0316,1.64,-0.0296,0.0468,0.0703,-0.0178
CTCGTTG,-0.0512,-0.101,-0.606,-0.63,-0.0356,-0.941,0.0196,-0.00571,-0.0286,-0.173
AGATACA,-0.285,0.0508,0.025,-1.16,-0.0612,0.0811,-0.235,-0.0544,0.0168,0.0146
TCCCCGA,0.0429,-0.017,-0.128,-0.314,-0.101,-0.704,0.0558,-0.0433,0.0514,-0.054
TACAATG,0.126,-0.0463,-0.44,-0.71,0.058,-0.923,0.202,0.129,-0.0368,0.133
GCCTGTT,-2.54,-0.14,-0.296,-0.997,-0.151,0.392,-2.77,-0.0169,-0.103,-0.337
TTGGTTG,-0.0442,-0.0178,-0.373,-0.484,-0.163,-0.803,-0.021,-0.167,-0.124,-0.175
TTAATAC,-1.13,-0.159,0.183,-1.02,-0.128,-0.446,-1.92,-0.04,-0.0271,-0.192
TACTGCC,0.0131,-0.0509,-0.201,-0.135,0.105,-0.207,-0.0615,-0.0489,0.00359,0.0213
AACGATT,0.148,-0.146,-0.178,-2.09,0.0355,0.622,-0.575,-0.0302,-0.103,0.0256
CTACACC,0.000255,-0.0751,-0.164,-1.54,-0.109,-0.534,-0.19,-0.0181,-0.0316,-0.00832
TTTCGTT,-0.21,-0.287,-0.118,-1.76,-0.0637,-0.932,-1.26,-0.159,-0.137,-0.178
AGCGATA,0.0556,0.102,-0.0663,0.556,0.0818,1.38,-0.139,0.142,6.59e-05,0.0373
